# Laboratory results as given in a collection of fitness landscapes (doi:10.1016/j.celrep.2020.107928).
# In all, about 81,000 sequences were measured (“one-hybrid fitness for binding NBS DNA”: median about -0.1, highest 2% from about 0.36 on). This is one part of the list.
# B1: Caulobacter ParB omega fusion; a variant is named by its letters at X, in order, B8GW30 (parent)
# chain: MESVVVGEPGMSEGRRGLGRGLSALLGEVDAAPAQAPGEQLGGSREAPIEILQRNPDQPRRTFREEDLEDLSNSIREKGVLQPILVRPSPDTAGEYQIVAGERAWRAAQRAGLKTVPIMVRELDDLAVLEIGIIENVQRADLNVLEEALSYKVLMEKFERTQENIAQTIGKSXSHVANXMRLLXLPDEVQSYLVSGELTAXHARAIAAAADPVALAKQIIEGGLSVRETEALARKAPNLSAGKSKGGRPPRVKDTDTQALESDLSSVLGLDVSIDHRGSTGTLTITYATLEQLDDLCNRLTRGI
# Variants of: B1
# Assay: one-hybrid fitness for binding NBS DNA (the Noc-binding site; scaled: cognate 1, non-cognate 0); higher = stronger binding
# Settings: with NBS DNA site
# Summary of the method: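 Caulobacter ParB libraries with four specificity codons randomised were screened by bacterial one-hybrid selection in the E. coli USO strain, using a HIS3 reporter whose site lies 19 bp from the promoter. Selection ran for 48 hours at 37°C on M9 lacking histidine, with 0.1 mM IPTG and 5 mM 3-AT. Plasmids were Illumina-sequenced before and after selection, three replicate libraries were pooled, and variants with under 10 reads were dropped. Fitness is the log change in each variant's read ratio to wild type, rescaled against the cognate and non-cognate sites.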
row,Variant,one-hybrid fitness for binding NBS DNA
1,CRVK,≤ 0.2
2,DRHY,≤ 0.2
3,TDHM,≤ 0.2
4,NWIV,≤ 0.2
5,GRTT,≤ 0.2
6,AKAM,≤ 0.2
7,NMGN,≤ 0.2
8,GRMM,≤ 0.2
9,AKMC,≤ 0.2
10,NCKT,≤ 0.2
11,GLPG,≤ 0.2
12,QCPI,≤ 0.2
13,PEAR,≤ 0.2
14,RLWC,≤ 0.2
15,HPPL,≤ 0.2
16,CHAC,≤ 0.2
17,TMKD,≤ 0.2
18,QECT,≤ 0.2
19,RCYS,0.521
20,QQQH,≤ 0.2
21,VKWG,≤ 0.2
22,LSLS,≤ 0.2
23,PYYS,≤ 0.2
24,RHCR,0.37

row,Variant,one-hybrid fitness for binding NBS DNA
1,PFQA,≤ 0.2
2,QYRG,0.321
3,RRFF,≤ 0.2
4,STDL,≤ 0.2
5,AHDM,≤ 0.2
6,RSCK,≤ 0.2
7,DFQG,≤ 0.2
8,VVNC,≤ 0.2
9,NYRS,≤ 0.2
10,ARSF,≤ 0.2
11,NWGG,≤ 0.2
12,HKLG,≤ 0.2
13,KLNS,≤ 0.2
14,DSFS,≤ 0.2
15,QAML,≤ 0.2
16,DWLV,≤ 0.2
17,KNAV,≤ 0.2
18,KPSY,≤ 0.2
19,YCRR,0.222
20,EYTM,≤ 0.2
21,KVSY,≤ 0.2
22,LFGG,≤ 0.2
23,NCWR,≤ 0.2
24,MGEG,≤ 0.2

row,Variant,one-hybrid fitness for binding NBS DNA
1,WAHS,≤ 0.2
2,NGRT,≤ 0.2
3,LQKY,≤ 0.2
4,QQGG,≤ 0.2
5,PYID,≤ 0.2
6,IWME,≤ 0.2
7,WHAD,≤ 0.2
8,DTMP,≤ 0.2
9,KRTC,≤ 0.2
10,FFTR,≤ 0.2
11,RHCY,≤ 0.2
12,TTWS,≤ 0.2
13,QKTV,≤ 0.2
14,WMYR,≤ 0.2
15,TFSS,≤ 0.2
16,CLRC,≤ 0.2
17,HMQA,≤ 0.2
18,AERR,≤ 0.2
19,YSGE,≤ 0.2
20,MYGS,≤ 0.2
21,AGHL,≤ 0.2
22,LSDN,≤ 0.2
23,PTMN,≤ 0.2
24,YAQL,≤ 0.2

row,Variant,one-hybrid fitness for binding NBS DNA
1,AMEI,≤ 0.2
2,DLLQ,≤ 0.2
3,SHAM,≤ 0.2
4,WRNV,≤ 0.2
5,EPLA,≤ 0.2
6,MKLI,≤ 0.2
7,QLLK,≤ 0.2
8,KNPF,≤ 0.2
9,TTAW,≤ 0.2
10,LVDV,≤ 0.2
11,LTKK,≤ 0.2
12,LGQD,≤ 0.2
13,QASS,0.32
14,KAEN,≤ 0.2
15,KFKM,≤ 0.2
16,NKSY,≤ 0.2
17,DAKM,≤ 0.2
18,GPGT,≤ 0.2
19,VPTP,≤ 0.2
20,ILGG,≤ 0.2
21,YAMS,≤ 0.2
22,DLAV,≤ 0.2
23,ILML,≤ 0.2
24,TNRA,≤ 0.2

row,Variant,one-hybrid fitness for binding NBS DNA
1,ESLC,≤ 0.2
2,RIMS,0.27
3,TRPE,≤ 0.2
4,HLHY,≤ 0.2
5,SGYF,≤ 0.2
6,RCNW,≤ 0.2
7,LYIL,≤ 0.2
8,QDIS,≤ 0.2
9,MGTT,≤ 0.2
10,YKGD,≤ 0.2
11,GGHG,≤ 0.2
12,HYRR,0.208
13,PFLE,≤ 0.2
14,YACP,≤ 0.2
15,QMNV,≤ 0.2
16,VTKT,≤ 0.2
17,APRA,≤ 0.2
18,SSAY,≤ 0.2
19,RDKW,≤ 0.2
20,HPNR,≤ 0.2
21,SCLV,≤ 0.2
22,RTMC,≤ 0.2
23,ACCT,≤ 0.2
24,VLLM,≤ 0.2

row,Variant,one-hybrid fitness for binding NBS DNA
1,MILT,≤ 0.2
2,RYLV,≤ 0.2
3,KMHM,≤ 0.2
4,RLSV,≤ 0.2
5,TRCM,≤ 0.2
6,EPCG,≤ 0.2
7,FPGS,≤ 0.2
8,RGNM,≤ 0.2
9,RHPA,≤ 0.2
10,AQYR,≤ 0.2
11,RRSQ,0.284
12,RAIW,≤ 0.2
13,MLMS,≤ 0.2
14,VHNS,≤ 0.2
15,RWGG,≤ 0.2
16,QLMA,≤ 0.2
17,HVNI,≤ 0.2
18,YVTR,≤ 0.2
19,SHRM,≤ 0.2
20,SINV,≤ 0.2
21,FQLS,≤ 0.2
22,QLQI,≤ 0.2
23,GKIT,≤ 0.2
24,VTGN,≤ 0.2

row,Variant,one-hybrid fitness for binding NBS DNA
1,YECC,≤ 0.2
2,LRST,≤ 0.2
3,RVHI,≤ 0.2
4,KLMN,≤ 0.2
5,WTTS,≤ 0.2
6,SVIC,≤ 0.2
7,GRDH,≤ 0.2
8,VMLR,≤ 0.2
9,TVDV,≤ 0.2
10,QQNH,0.355
11,MVKL,≤ 0.2
12,ATIN,≤ 0.2
13,TPVC,≤ 0.2
14,TTKI,≤ 0.2
15,PVLN,≤ 0.2
16,QLAS,0.329
17,GDPG,≤ 0.2
18,RHCS,0.347
19,ADDT,≤ 0.2
20,KRKY,0.368
21,WTMT,≤ 0.2
22,ANGP,≤ 0.2
23,TLKG,≤ 0.2
24,RIGR,0.441

row,Variant,one-hybrid fitness for binding NBS DNA
1,FNVS,≤ 0.2
2,CSLW,≤ 0.2
3,YKDF,≤ 0.2
4,NGQT,≤ 0.2
5,QSKM,0.362
6,RDTF,≤ 0.2
7,RHQN,≤ 0.2
8,TSRM,≤ 0.2
9,LKAK,≤ 0.2
10,QQHG,≤ 0.2
11,WLWG,≤ 0.2
12,RHCD,≤ 0.2
13,RTYG,≤ 0.2
14,GDTT,≤ 0.2
15,SHRY,≤ 0.2
16,RSEA,≤ 0.2
17,KPEK,≤ 0.2
18,ISFG,≤ 0.2
19,RQRY,0.32
20,QPQL,≤ 0.2
21,PHSG,≤ 0.2
22,KLGH,≤ 0.2
23,HENG,≤ 0.2
24,PCVP,≤ 0.2

row,Variant,one-hybrid fitness for binding NBS DNA
1,IRLA,≤ 0.2
2,VNTG,≤ 0.2
3,DSLC,≤ 0.2
4,LGKL,≤ 0.2
5,TGYY,≤ 0.2
6,KCAL,≤ 0.2
7,NDKV,≤ 0.2
8,ATCL,≤ 0.2
9,DKVT,≤ 0.2
10,AVPL,≤ 0.2
11,QPHT,≤ 0.2
12,PRFL,≤ 0.2
13,VMER,≤ 0.2
14,CSNY,≤ 0.2
15,DHAC,≤ 0.2
16,FDNG,≤ 0.2
17,ARFT,≤ 0.2
18,AKGY,≤ 0.2
19,HSSA,≤ 0.2
20,TPSI,≤ 0.2
21,KPNR,≤ 0.2
22,MANR,≤ 0.2
23,RNQA,≤ 0.2
24,PLFF,≤ 0.2

row,Variant,one-hybrid fitness for binding NBS DNA
1,VYPW,≤ 0.2
2,VYYM,≤ 0.2
3,DRDI,≤ 0.2
4,LQIT,≤ 0.2
5,DVAM,≤ 0.2
6,VGFG,≤ 0.2
7,QLSG,≤ 0.2
8,STEC,≤ 0.2
9,ADQL,≤ 0.2
10,AEPR,0.408
11,NVHN,≤ 0.2
12,NHPD,≤ 0.2
13,CTPY,≤ 0.2
14,EMRT,≤ 0.2
15,PTVS,≤ 0.2
16,LVSG,≤ 0.2
17,YGTV,≤ 0.2
18,TPHH,≤ 0.2
19,FPTS,≤ 0.2
20,STKK,≤ 0.2
21,AVTC,≤ 0.2
22,QTWK,≤ 0.2
23,RGYK,≤ 0.2
24,HNSY,≤ 0.2

row,Variant,one-hybrid fitness for binding NBS DNA
1,YAGM,≤ 0.2
2,NVKS,≤ 0.2
3,FSGF,≤ 0.2
4,RNAM,≤ 0.2
5,FGAS,≤ 0.2
6,GWSC,≤ 0.2
7,PAYD,≤ 0.2
8,YVYL,≤ 0.2
9,DIRL,≤ 0.2
10,QRVA,0.511
11,NRLL,≤ 0.2
12,MLKT,≤ 0.2
13,TYNR,≤ 0.2
14,WAVR,≤ 0.2
15,LGPA,≤ 0.2
16,DCNM,≤ 0.2
17,MRPD,≤ 0.2
18,KPLR,≤ 0.2
19,MQNK,≤ 0.2
20,SDPN,≤ 0.2
21,GMAE,≤ 0.2
22,FNNR,≤ 0.2
23,PRCD,≤ 0.2
24,RKGR,0.606

row,Variant,one-hybrid fitness for binding NBS DNA
1,RMDI,≤ 0.2
2,GRNT,≤ 0.2
3,TRTE,≤ 0.2
4,PAEV,≤ 0.2
5,RPLM,≤ 0.2
6,DTNV,≤ 0.2
7,TAQC,≤ 0.2
8,TSIE,≤ 0.2
9,TSHA,≤ 0.2
10,FLER,≤ 0.2
11,NWKW,≤ 0.2
12,LTAW,≤ 0.2
13,FETG,≤ 0.2
14,QGRN,≤ 0.2
15,VVIM,≤ 0.2
16,DALC,≤ 0.2
17,KAVS,≤ 0.2
18,ARMP,≤ 0.2
19,HLTF,≤ 0.2
20,GNTC,≤ 0.2
21,ARTN,≤ 0.2
22,LWSW,≤ 0.2
23,PLKD,≤ 0.2
24,RKCA,0.265

row,Variant,one-hybrid fitness for binding NBS DNA
1,PVNA,≤ 0.2
2,RPCM,≤ 0.2
3,WFRM,≤ 0.2
4,ICAC,≤ 0.2
5,QCYP,≤ 0.2
6,EGPS,≤ 0.2
7,VDPY,≤ 0.2
8,IPRT,≤ 0.2
9,PYET,≤ 0.2
10,KFVV,≤ 0.2
11,DGAI,≤ 0.2
12,WCRT,≤ 0.2
13,AYWG,≤ 0.2
14,MWSL,≤ 0.2
15,CQGS,≤ 0.2
16,LLKA,≤ 0.2
17,SLWM,≤ 0.2
18,TPVD,≤ 0.2
